# Test results taken from the supplement of paper PMC8728848.
# Some of the results follow.
# B1: ASA (Allium sativum) (protein)
# chain: KAHEKERMGRNTPSAKLMSIAAVAAILTILASTCMARNLLTNGEGLYAGQSLNVEPYHFIMQEDCNLVLYDHSTAVWATNTDIPGKKECRAVLQSDGNFVVYDADGRPLWASHSVRGNGNYVLVLQEDGNVVIYGSDIWSTGTYVKAARGPVVVAMNGTVDGGSLIRPVIVNKNHVPVIRKVGTLSRNILRNDEGLYAGQSLDVEPYHFIMHEDCNLVLYDHSTAVWASNTDIPGKKGCKAVLQSDGNFVVYDAEGRSLWASHSVRGNGNYVLVLQEDGNVVIYGSDIWSTDTYRKSARGPVIRKVGTLAGAA
# Assays:
# Assay in all cases: glycan array binding signal (z-score within array); higher = stronger binding
# Conditions in all cases: glycan notation: IUPAC condensed, linker removed
# [1] = target: Neu5Ac(a2-3)Gal(b1-4)GlcNAc
# How it was run: (§1)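 Glycan array data were curated from 3228 arrays in the Consortium for Functional Glycomics database and kept only where the protein sequence was available. Glycan names were converted to IUPAC-condensed notation, and columns mapping to the same glycan were averaged. The binding signal is a within-array Z-score, averaged across arrays of the same protein sequence at different concentrations or buffers and across linkers. Negative Z-scores can be read as non-binding.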
# [2] = target: Neu5Ac(a2-3)Gal(b1-4)GlcNAc(b1-3)Gal(b1-4)GlcNAc
# How it was run: as §1
# [3] = target: Neu5Ac(a2-3)Gal(b1-4)GlcNAc(b1-3)Gal(b1-4)GlcNAc(b1-3)Gal(b1-4)GlcNAc
# How it was run: as §1
# [4] = target: Neu5Ac(a2-3)Gal(b1-4)GlcNAc(b1-3)Gal(b1-4)[Fuc(a1-3)]GlcNAc
# How it was run: as §1
# [5] = target: Neu5Ac(a2-3)Gal(b1-4)GlcNAc6S
# How it was run: as §1
# [6] = target: Neu5Ac(a2-3)Gal(b1-4)[Fuc(a1-3)]GlcNAc
# How it was run: as §1
# [7] = target: Neu5Ac(a2-3)Gal(b1-4)[Fuc(a1-3)]GlcNAc(b1-3)Gal
# How it was run: as §1
# [8] = target: Neu5Ac(a2-3)Gal(b1-4)[Fuc(a1-3)]GlcNAc(b1-3)Gal(b1-4)GlcNAc
# How it was run: as §1
# [9] = target: Neu5Ac(a2-3)Gal(b1-4)[Fuc(a1-3)]GlcNAc(b1-3)Gal(b1-4)[Fuc(a1-3)]GlcNAc(b1-3)Gal(b1-4)[Fuc(a1-3)]GlcNAc
# How it was run: as §1
# [10] = target: Neu5Ac(a2-3)Gal(b1-4)[Fuc(a1-3)]GlcNAc6S
# How it was run: as §1
# [11] = target: Neu5Ac(a2-3)Gal6S(b1-4)GlcNAc
# How it was run: as §1
# [12] = target: Neu5Ac(a2-3)Gal6S(b1-4)[Fuc(a1-3)]GlcNAc
# How it was run: as §1
# Neu5Ac(a2-3)GalNAc = target: Neu5Ac(a2-3)GalNAc
# How it was run: as §1
# [13] = target: Neu5Ac(a2-3)GalNAc(b1-4)GlcNAc
# How it was run: as §1
# [14] = target: Neu5Ac(a2-3)[GalNAc(b1-4)]Gal(b1-4)Glc
# How it was run: as §1
# [15] = target: Neu5Ac(a2-3)[GalNAc(b1-4)]Gal(b1-4)GlcNAc
# How it was run: as §1
# [16] = target: Neu5Ac(a2-3)[Neu5Ac(a2-6)]GalNAc
# How it was run: as §1
# [17] = target: Neu5Ac(a2-6)Gal(b1-4)GlcNAc
# How it was run: as §1
# [18] = target: Neu5Ac(a2-6)Gal(b1-4)GlcNAc(b1-2)Man(a1-3)[Neu5Ac(a2-6)Gal(b1-4)GlcNAc(b1-2)Man(a1-6)]Man(b1-4)GlcNAc(b1-4)GlcNAc
# How it was run: as §1
# [19] = target: Neu5Ac(a2-6)Gal(b1-4)GlcNAc(b1-3)Gal(b1-4)GlcNAc
# How it was run: as §1
# [20] = target: Neu5Ac(a2-6)Gal(b1-4)GlcNAc(b1-3)Gal(b1-4)[Fuc(a1-3)]GlcNAc(b1-3)Gal(b1-4)[Fuc(a1-3)]GlcNAc
# How it was run: as §1
# [21] = target: Neu5Ac(a2-6)Gal(b1-4)GlcNAc6S
# How it was run: as §1
# Neu5Ac(a2-6)GalNAc = target: Neu5Ac(a2-6)GalNAc
# How it was run: as §1
# [22] = target: Neu5Ac(a2-6)GalNAc(b1-4)GlcNAc
# How it was run: as §1
# Neu5Ac(a2-8)Neu5Ac = target: Neu5Ac(a2-8)Neu5Ac
# How it was run: as §1
# [23] = target: Neu5Ac(a2-8)Neu5Ac(a2-3)Gal(b1-4)Glc
# How it was run: as §1
# [24] = target: Neu5Ac(a2-8)Neu5Ac(a2-3)[GalNAc(b1-4)]Gal(b1-4)Glc
# How it was run: as §1
# [25] = target: Neu5Ac(a2-8)Neu5Ac(a2-8)Neu5Ac
# How it was run: as §1
# [26] = target: Neu5Ac(a2-8)Neu5Ac(a2-8)Neu5Ac(a2-3)Gal(b1-4)Glc
# How it was run: as §1
# [27] = target: Neu5Ac(a2-8)Neu5Ac(a2-8)Neu5Ac(a2-3)[GalNAc(b1-4)]Gal(b1-4)Glc
# How it was run: as §1
# [28] = target: Neu5Ac(a2-8)Neu5Ac(a2-8)Neu5Ac(a2-8)Neu5Ac(a2-3)[GalNAc(b1-4)]Gal(b1-4)Glc
# How it was run: as §1
# [29] = target: Neu5Ac9Ac(a2-6)Gal(b1-4)GlcNAc
# How it was run: as §1
# [30] = target: Neu5Gc(a2-3)Gal(b1-3)GlcNAc
# How it was run: as §1
# [31] = target: Neu5Gc(a2-3)Gal(b1-3)[Fuc(a1-4)]GlcNAc
# How it was run: as §1
# Neu5Gc(a2-3)Gal(b1-4)Glc = target: Neu5Gc(a2-3)Gal(b1-4)Glc
# How it was run: as §1
# [32] = target: Neu5Gc(a2-3)Gal(b1-4)GlcNAc
# How it was run: as §1
# [33] = target: Neu5Gc(a2-3)Gal(b1-4)[Fuc(a1-4)]GlcNAc
# How it was run: as §1
# [34] = target: Neu5Gc(a2-6)Gal(b1-4)GlcNAc
# How it was run: as §1
# Neu5Gc(a2-6)GalNAc = target: Neu5Gc(a2-6)GalNAc
# How it was run: as §1
binder,measurement,setting,value
B1,glycan array binding signal (z-score),[1],-0.207
same,glycan array binding signal (z-score),[2],-0.227
same,glycan array binding signal (z-score),[3],0.046
same,glycan array binding signal (z-score),[4],-0.243
same,glycan array binding signal (z-score),[5],-0.176
same,glycan array binding signal (z-score),[6],-0.201
same,glycan array binding signal (z-score),[7],-0.222
same,glycan array binding signal (z-score),[8],-0.107
same,glycan array binding signal (z-score),[9],-0.112
same,glycan array binding signal (z-score),[10],-0.22
same,glycan array binding signal (z-score),[11],-0.196
same,glycan array binding signal (z-score),[12],-0.205
same,glycan array binding signal (z-score),Neu5Ac(a2-3)GalNAc,-0.209
same,glycan array binding signal (z-score),[13],-0.107
same,glycan array binding signal (z-score),[14],-0.231
same,glycan array binding signal (z-score),[15],-0.172
same,glycan array binding signal (z-score),[16],-0.232
same,glycan array binding signal (z-score),[17],-0.217
same,glycan array binding signal (z-score),[18],-0.184
same,glycan array binding signal (z-score),[19],-0.226
same,glycan array binding signal (z-score),[20],0.134
same,glycan array binding signal (z-score),[21],-0.233
same,glycan array binding signal (z-score),Neu5Ac(a2-6)GalNAc,-0.232
same,glycan array binding signal (z-score),[22],-0.207
same,glycan array binding signal (z-score),Neu5Ac(a2-8)Neu5Ac,-0.227
same,glycan array binding signal (z-score),[23],-0.228
same,glycan array binding signal (z-score),[24],-0.231
same,glycan array binding signal (z-score),[25],-0.206
same,glycan array binding signal (z-score),[26],-0.226
same,glycan array binding signal (z-score),[27],-0.196
same,glycan array binding signal (z-score),[28],-0.173
same,glycan array binding signal (z-score),[29],-0.224
same,glycan array binding signal (z-score),[30],-0.198
same,glycan array binding signal (z-score),[31],-0.192
same,glycan array binding signal (z-score),Neu5Gc(a2-3)Gal(b1-4)Glc,-0.208
same,glycan array binding signal (z-score),[32],-0.217
same,glycan array binding signal (z-score),[33],-0.216
same,glycan array binding signal (z-score),[34],-0.239
same,glycan array binding signal (z-score),Neu5Gc(a2-6)GalNAc,-0.15
